# Data as given in the supplement of paper PMC4466236.
# Over roughly 33,000 sequences, “E-score (dimensionless, -0.5 to 0.5)” has its median near -0.058; the highest 2% begin near 0.35. The list shows a part of the results.
# Tested on: MvaT
# Test: PBM 8-mer E-score (mean of HK and ME arrays) (E-score (dimensionless, -0.5 to 0.5)); higher = stronger relative binding preference; most listed sequences are background and not binding sites
# Method in brief: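 Reported values are rank-based E-scores, taken as the mean of two universal arrays and parsed with a custom script. Each 8-mer score falls between -0.5 and 0.5. The arrays, ME and HK, were double-stranded 60-mers with a constant 25-mer primer region and a variable 35-mer region covering all 8-mers. They were probed, by an earlier protocol, with full-length P. aeruginosa MvaT carrying an N-terminal glutathione S-transferase fusion.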
row,Sequence,PBM 8-mer E-score
1,AACGTCCC,-0.176
2,GTGGACAA,0.00541
3,CGAGTGTC,-0.134
4,AAGGGTCC,-0.117
5,CTATTACA,0.267
6,GGGTCGGA,-0.291
7,ACTGGTGG,-0.126
8,GAACCTCA,-0.186
9,ACACGGAG,-0.193
10,CTCTTTCC,-0.112
11,CCTACTGA,-0.277
12,ATGTAACC,0.0775
13,CAGACAAC,0.0973
14,ACTCGGTG,-0.099
15,TGTCAACA,-0.0136
16,ATAGCCTC,-0.0964
17,AAACTTGG,0.112
18,GGTCCCGA,-0.169
19,CGCGCTAC,-0.0539
20,GCCGGATA,0.0499
21,GGGTTTCA,-0.25
22,ACTCAGAG,-0.000689
23,TAGACATA,0.0656
24,AGACTCAT,-0.0553
25,CTAGTATA,0.331

row,Sequence,PBM 8-mer E-score
1,AGGGTACT,0.0457
2,ATCCAGCG,-0.103
3,CGCACAAA,0.0368
4,ACGAACCT,-0.133
5,ATTCGGAA,0.0557
6,GCACCGTA,-0.217
7,GGTGCGGA,-0.235
8,AATGATGT,0.179
9,GAAGCCTC,-0.36
10,TGAGTCCA,-0.208
11,AGTTCCGG,-0.00523
12,AACTACAA,0.304
13,GCCTTACC,-0.267
14,AACAGCTT,0.05
15,GGAGTAAA,-0.0939
16,ATCGCGCC,-0.0414
17,AACCATAT,0.254
18,CGGAGCGA,-0.238
19,GGTTAGGA,-0.11
20,GCCAAGAA,-0.043
21,TCTCAAAA,0.0618
22,CAAGTGGC,-0.136
23,CACCTGAC,-0.129
24,ATAAGCTG,0.188
25,ATTCGGGG,-0.0391

row,Sequence,PBM 8-mer E-score
1,CGGCTCCC,-0.288
2,CGCGCTTC,-0.107
3,ATCGGAGA,-0.102
4,GAACGGCC,-0.248
5,AACTAGCT,0.0966
6,ATGCGTTC,0.0369
7,AATCTGTC,0.0896
8,GTGAACAA,0.0563
9,ACGATACA,-0.0203
10,ACTACCCC,-0.0705
11,AAACAGGG,-0.041
12,ACCCCGAA,-0.179
13,AAGTCCTA,0.0165
14,AAAGACGC,-0.167
15,ACGCTTGC,-0.172
16,AGTGCTAG,-0.22
17,TATCTCCA,0.167
18,CTACTTGC,0.173
19,AGAGGACG,-0.268
20,CCTGCCAA,-0.136
21,CTATACAC,0.132
22,AGGTTTTA,0.145
23,CAATATGC,0.0377
24,ATCGCGTC,-0.106
25,ACTTGACT,0.0422

row,Sequence,PBM 8-mer E-score
1,CGCTCCTA,-0.0562
2,CGCCGCAA,-0.0873
3,CGATTGCC,-0.168
4,AGTGCACG,-0.2
5,AAGTGTAT,0.209
6,CTCGATAC,-0.0806
7,AGCAAAAG,-0.129
8,CCTAGAAA,-0.00555
9,TACTTAAA,0.302
10,CGCAGGAA,-0.125
11,CCTATCAA,-0.00595
12,CAGCGGCG,-0.314
13,CAGGATGA,-0.161
14,AACGCTGA,0.0104
15,TGTAAAAA,0.208
16,TAGCAAAA,0.141
17,GTGACCAC,-0.2
18,CCTAGACC,-0.368
19,CTACCATA,0.113
20,AACCAGGA,-0.0702
21,CCTTGGTC,-0.147
22,CTATAGAG,-0.125
23,CGCCACGC,-0.232
24,AAAAGCTC,-0.0929
25,CGTGTAAA,0.0939

row,Sequence,PBM 8-mer E-score
1,CCCGGTAA,0.0671
2,ACTACTAA,0.258
3,AATCTTTA,0.264
4,TCCCTGAA,-0.14
5,CTAGTCTA,0.0791
6,AACTCTAT,0.128
7,AAATTCGT,0.258
8,ACCAGTTG,0.0747
9,AATACGGT,0.137
10,GAACTCTC,-0.143
11,AGAAGGCG,-0.261
12,CTGGATCC,-0.197
13,GGGTGGGA,-0.0483
14,GATCCTTA,-0.113
15,ATTACTTG,0.266
16,ATGCGCTG,0.0436
17,ACACGCAT,0.17
18,CACCAAAC,0.0469
19,CCGCCGTA,-0.188
20,CTGTGACC,-0.092
21,GCGCCTAC,-0.236
22,CCCGTGGA,-0.268
23,GAGGAACA,-0.143
24,CCCCCCAA,-0.228
25,ATGAATAA,0.368

row,Sequence,PBM 8-mer E-score
1,GACGGACC,-0.291
2,AGGGAACT,-0.0689
3,GCTATGGA,-0.0686
4,ATCTGGGA,-0.123
5,CAAGGGCG,-0.258
6,CTCCTTCC,-0.435
7,ACGCAGAT,0.116
8,CGCGCATC,-0.204
9,GAATCAGA,-0.0423
10,AGATAGAC,-0.162
11,ATATATGC,0.424
12,ACGCTTGG,-0.247
13,CTGCTTGA,-0.174
14,CAAGATTC,-0.0781
15,ACAGTATC,0.0114
16,AGCTAACT,-0.0152
17,CTACGATA,0.0523
18,GTGGCGCA,-0.113
19,TCCTGAAA,-0.102
20,AGGTTATC,0.0402
21,CCGTCCAC,-0.146
22,AGACTGTA,0.0181
23,ATCACGTC,-0.11
24,AATGAAAA,0.138
25,AATGGTGG,-0.157

row,Sequence,PBM 8-mer E-score
1,ACTGTCGG,-0.0997
2,AGATCGGG,-0.146
3,GCGTCGGA,-0.267
4,ATAAAAGA,0.263
5,GCTCTAAA,0.0346
6,CCTATTCC,-0.0259
7,TAAACACA,0.285
8,ATGTCAAC,0.0323
9,AGGATCCG,-0.289
10,ACAAAGCC,0.0647
11,AGGTTCGA,-0.0906
12,AATGATTG,0.0829
13,CGGTTTAG,-0.0711
14,AGCAGAAT,0.157
15,GGGTGACA,-0.126
16,AGTCGGAA,0.0122
17,TCCAGCAA,-0.0123
18,CTCCTGTC,-0.282
19,ATAAGGAG,0.137
20,GCCGTTAC,0.00658
21,CTCCATCA,-0.189
22,GGTGGCAC,-0.179
